# Screen size: about 220,000 compounds; about 5,700 (2.6%) were called active. Inconclusive means that the source gave no clear call. Such entries were picked first, then a sample of the others. The call rests on the fitted dose curve; in most records, active means well fitted inhibition curve with a large enough effect; inconclusive means small, poorly fitted or top-dose-only effect; inactive means no such curve, though single readings can be large or run the other way. A potency beside an inconclusive call is a rough fit, not a confirmed value.
# Biological target: Lysine-specific demethylase 5B (Homo sapiens) (UniProt Q9UGL1)
# Chain of UniProt Q9UGL1 (Q9UGL1 whole entry, looked up): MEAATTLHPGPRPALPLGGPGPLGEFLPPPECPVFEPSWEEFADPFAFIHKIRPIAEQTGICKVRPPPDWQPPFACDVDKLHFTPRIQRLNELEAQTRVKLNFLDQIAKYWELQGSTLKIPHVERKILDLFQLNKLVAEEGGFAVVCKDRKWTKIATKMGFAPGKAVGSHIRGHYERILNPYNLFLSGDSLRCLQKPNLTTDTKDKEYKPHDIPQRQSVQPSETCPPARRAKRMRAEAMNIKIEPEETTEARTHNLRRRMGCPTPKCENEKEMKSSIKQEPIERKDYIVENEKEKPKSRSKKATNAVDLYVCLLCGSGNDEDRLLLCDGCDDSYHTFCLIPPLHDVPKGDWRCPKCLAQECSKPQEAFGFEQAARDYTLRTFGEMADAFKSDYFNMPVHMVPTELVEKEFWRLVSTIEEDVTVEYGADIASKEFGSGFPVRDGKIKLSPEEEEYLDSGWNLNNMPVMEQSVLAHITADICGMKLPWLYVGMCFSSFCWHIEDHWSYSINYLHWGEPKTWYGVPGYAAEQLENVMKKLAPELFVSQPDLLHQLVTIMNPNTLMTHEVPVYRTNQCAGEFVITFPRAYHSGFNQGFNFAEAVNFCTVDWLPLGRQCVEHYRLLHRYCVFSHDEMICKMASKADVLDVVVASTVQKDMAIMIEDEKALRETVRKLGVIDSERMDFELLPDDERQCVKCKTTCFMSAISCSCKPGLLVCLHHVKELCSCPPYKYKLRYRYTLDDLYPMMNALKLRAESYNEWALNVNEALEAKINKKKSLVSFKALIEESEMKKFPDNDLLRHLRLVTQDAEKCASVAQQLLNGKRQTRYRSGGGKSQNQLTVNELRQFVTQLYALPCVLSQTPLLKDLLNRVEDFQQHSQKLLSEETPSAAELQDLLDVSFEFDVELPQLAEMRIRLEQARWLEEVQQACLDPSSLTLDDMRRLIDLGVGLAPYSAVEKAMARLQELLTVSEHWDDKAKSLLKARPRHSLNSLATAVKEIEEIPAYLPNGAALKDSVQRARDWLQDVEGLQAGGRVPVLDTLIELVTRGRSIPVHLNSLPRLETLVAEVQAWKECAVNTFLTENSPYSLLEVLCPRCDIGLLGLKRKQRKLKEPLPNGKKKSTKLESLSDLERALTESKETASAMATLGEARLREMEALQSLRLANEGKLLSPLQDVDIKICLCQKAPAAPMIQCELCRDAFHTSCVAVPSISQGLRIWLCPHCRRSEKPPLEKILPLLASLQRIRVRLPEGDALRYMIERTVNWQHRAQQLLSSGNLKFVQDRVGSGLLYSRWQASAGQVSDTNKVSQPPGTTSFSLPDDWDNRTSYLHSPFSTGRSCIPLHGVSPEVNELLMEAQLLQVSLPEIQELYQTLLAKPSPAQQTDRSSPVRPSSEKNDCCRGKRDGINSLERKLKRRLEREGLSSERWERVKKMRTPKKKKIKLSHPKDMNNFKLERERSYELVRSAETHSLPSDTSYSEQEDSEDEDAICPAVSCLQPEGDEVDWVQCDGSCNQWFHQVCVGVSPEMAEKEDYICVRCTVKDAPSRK
# Assay: Primary screen for KDM5B Histone Demethylases FDH-coupled qHTS; further: nearly all actives have a fitted effect of over 70% in size; on activity change, negative = inhibition: 0% is about no effect
# Settings: FDH-coupled NADH fluorescence (FDH is formaldehyde dehydrogenase); activity change, negative = inhibition: at 57.7 µM (top of the series) unless noted
# Method in brief: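 Here, H3K4me3 peptide (12.5 µM in substrate mix) is demethylated by KDM5BΔAP, 200 nM final, after 10 min compound exposure. Formaldehyde product is coupled through FDH (0.25 U/mL in mix) to NADH fluorescence; 30-min ΔRFU feeds dose-response curves.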
# Potency means the concentration at half of the fitted maximal effect; tags describe the fitted curve by direction and shape.
SMILES,"activity change, negative = inhibition",Potency
N#C/C(=C/c1cccc(NC(=O)c2ccc(Cl)cc2)c1)c1ccccn1,inactive: -11%,–
O=C(Cn1ccn2nc(-c3ccc(F)cc3)c(CO)c2c1=O)Nc1ccc(F)c(F)c1,–,"inconclusive: 39.8 µM [inhibitor, single point]"
O=S(=O)(c1ccccc1)N1CCN(c2cc(C3CC(O)C3)ncn2)CC1 (stereo not given),–,"inconclusive: 35.5 µM [inhibitor, single point]"
COc1ccc(OCC(=O)Nc2ccc3c(c2)nc(CN2CCN(C(C)=O)CC2)n3C)cc1,inactive: -0.325%,–
O=C(NCc1ccc(F)cc1)c1ccc2oc(=O)n(Cc3ccccc3)c2c1,inactive: 13.8%,–
O=C1NCc2ccccc2CC12CCCN(Cc1cccc(Cl)c1)C2 (stereo not given),inactive: 6.53% [at 149 µM],–
CC(NC(=O)c1n[nH]c(=O)c2ccccc12)c1ccc(F)c(F)c1 (stereo not given),inactive: -6.51%,–
CN(c1ccccc1)c1ccc2nnc(-c3cc(C(=O)NC4CCC(O)CC4)ccn3)n2n1 (stereo not given),inactive: -14.3%,–
Cc1ccc(Cl)c(NC(=O)NCc2nc(-c3cccc(Cl)c3)oc2C)c1,inactive: 17.6%,–
COC(=O)c1c(-c2cccs2)csc1NC(=O)c1ccc(C(C)C)cc1,–,"inconclusive: 3.16 µM [inhibitor, full curve, poor fit]"
COc1ccc(-c2ccc3c(c2)C(=O)N2CC[C@H](NS(=O)(=O)c4cccs4)[C@H]2C(=O)N3)cc1,–,active: 22.4 µM
COc1cc(NC(=O)c2ccc(Cn3ccn4nc5c(c4c3=O)CCCC5)cc2)cc(OC)c1OC,–,"inconclusive: 22.4 µM [inhibitor, single point]"
CCN(CC)c1cc(CCC(=O)NCCN(C)C2CCCCC2)ccn1,–,active: 28.2 µM
COc1ccc(-c2nc(C)nc3c2CCN(Cc2cccc4ccccc24)CC3)cc1,–,"inconclusive: 22.4 µM [inhibitor, single point]"
Cc1ccccc1NC(=O)c1ccc(N(Cc2ccccc2)S(C)(=O)=O)cc1,–,"inconclusive: 28.2 µM [inhibitor, partial curve, poor fit]"
Cc1cccc(-c2nnc(C(C)Sc3n[nH]c(N)n3)o2)c1 (stereo not given),inactive: -14.1%,–
Cc1noc(C)c1NC(=O)N[C@@H]1C[C@H](Cn2cc(CN3CCS(=O)(=O)CC3)nn2)[C@@H](O)[C@H]1O,–,"inconclusive: 39.8 µM [inhibitor, single point]"
CC(C)(C)OC(=O)N1CCC(c2c(C(=O)Nc3ccc4c(c3)OCO4)cnn2-c2ccccc2)CC1,–,"inconclusive: 3.98 µM [inhibitor, partial curve, poor fit]"
Cc1cccc(OCC(=O)Nc2ccc3oc(-c4cccnc4)nc3c2)c1,–,"inconclusive: 1.78 µM [inhibitor, partial curve, poor fit]"
CC(NC(=O)c1cc2c(s1)CCN(C(=O)c1ccccc1)C2)c1ccc(F)cc1 (stereo not given),–,"inconclusive: 25.1 µM [inhibitor, single point]"
O=C(c1ccsc1)N1CCC2(CC1)CN(c1ccncn1)CC2CO (stereo not given),inactive: 5.41%,–
O=C1COc2ccc(N3CCCC3)nc2CN1Cc1ccccc1,–,active: 35.5 µM
O=C(COc1ccccc1)Nc1ccc([C@@H](O)[C@H]2COCC(=O)N2Cc2ccc(C(F)(F)F)cc2)cc1,inactive: -17.4%,–
COc1ccc(-c2ccc3c(c2)C(=O)N2CCN(C(=O)C4CCCCC4)C[C@@H]2C(=O)N3)cc1,–,"inconclusive: 15.8 µM [inhibitor, single point]"

SMILES,"activity change, negative = inhibition",Potency
O=C1/C(=C/c2ccc(Br)cc2F)Cc2ccccc21,inactive: 11%,–
CC(OC(=O)c1ccccn1)C(=O)C12CC3CC(CC(C3)C1)C2 (stereo not given),inactive: 16.1%,–
Cc1nnc([C@H]2CCN(Cc3ncc[nH]3)C2)o1,–,"inconclusive: 31.6 µM [inhibitor, partial curve, poor fit]"
O=C(NC(=S)NNC(=O)c1ccccc1F)c1cccnc1,–,"inconclusive: 11.2 µM [inhibitor, partial curve, poor fit]"
CC(C)(C)c1ccc(C(=S)NCCC2=CCCCC2)cc1,–,"inconclusive: 39.8 µM [inhibitor, single point]"
O=C1COc2ccc(Nc3ccccc3)nc2CN1Cc1ccccc1,–,"inconclusive: 39.8 µM [inhibitor, partial curve, poor fit]"
CC(=O)Nc1cccc(-c2cnc3n[nH]c(-c4ccc5c(c4)OCO5)c3n2)c1,–,"inconclusive: 35.5 µM [inhibitor, single point]"
CCOc1c(Cl)cc(CNCc2cccc(C#N)c2)cc1OC,inactive: 11.3%,–
COc1ccc(S(=O)(=O)N2C[C@@H]3C[C@H](C2)c2ccc(NS(=O)(=O)c4cccs4)c(=O)n2C3)cc1,–,"inconclusive: 12.6 µM [inhibitor, partial curve, poor fit]"
Cc1ccc(C(C)NS(=O)(=O)C2=Cc3ccccc3CC2)o1 (stereo not given),–,"inconclusive: 31.6 µM [inhibitor, partial curve, poor fit]"
Cc1cc(C)nc(NC(=O)Nc2ccc(F)cc2)c1,–,"inconclusive: 22.4 µM [inhibitor, partial curve, poor fit]"
Cc1ccc2nc(COc3cccc(NC(=O)COc4ccc(F)cc4)c3)cc(=O)n2c1,inconclusive: -35.8% [inhibitor],–
COc1cc(-c2onc(C)c2C(=O)NCCCCc2ccccc2)cc(OC)c1OC,–,active: 25.1 µM
O=C(Cn1c(-c2cccs2)cc2ccccc21)NCCCN1CCN(c2ccccc2F)CC1,–,"inconclusive: 31.6 µM [inhibitor, partial curve, poor fit]"
O=C(CSc1nnc2ccccn12)c1ccc(F)cc1,inactive: 4.14%,–
Cc1ccc(NC(=O)c2c(NC(=O)C(F)(F)F)sc3c2CCCCC3)cc1,–,"inconclusive: 31.6 µM [inhibitor, single point]"
CSc1ccc(/C=N/NC(=O)C2CC2)cc1,–,"inconclusive: 39.8 µM [inhibitor, single point]"
COc1ccccc1CCN1Cc2cc(NC(=O)Cc3cccs3)ccc2OC(C)C1=O (stereo not given),inactive: -27.3%,–
COc1cccc(NC(=O)CNc2ccccc2C(=O)NC2CC2)c1,inactive: -849%,–
O=C(CCCc1nc2ccccc2s1)N1CCc2nc3cc(-c4ccccc4)[nH]n3c(=O)c2C1,–,"inconclusive: 28.2 µM [inhibitor, partial curve, poor fit]"
COc1ccc(NC(=O)Nc2nnc(N(CC(C)C)CC(C)C)s2)c(OC)c1,inactive: -15.3%,–
CCN(C(=O)c1cc2c(s1)-c1ccccc1OC2)c1cccc(C(F)(F)F)c1,–,"inconclusive: 35.5 µM [inhibitor, partial curve, poor fit]"
Cc1cc(CNC(=O)c2cc(C)nc3ccccc23)c2ccccc2n1,inactive: -17.1%,–
Cc1cc2cc(CNC(=O)COc3ccccc3)ccc2n1C,inactive: -8.77%,–

SMILES,"activity change, negative = inhibition",Potency
O=C(NCc1ccccc1)N1CC(Oc2cccc(-c3nc(-c4ccccc4)no3)c2)C1,–,"inconclusive: 35.5 µM [inhibitor, partial curve, poor fit]"
OCCN1CCN(c2ccc(-c3nc(-c4cccc(C(F)(F)F)c4)no3)cn2)CC1,–,active: 28.2 µM
COc1ccc(C(=O)OCc2ccc(Cl)cc2)c(OC)c1OC,inactive: 10.5%,–
CN(CCO)c1cccc2c1S(=O)(=O)N(Cc1cn(Cc3ccc(Cl)cc3)nn1)Cc1ccccc1O2,–,"inconclusive: 25.1 µM [inhibitor, partial curve, poor fit]"
Cc1oc(-c2cccs2)nc1CC(=O)N1CCC2(CC1)NC(=O)NC2=O,inactive: -260%,–
COc1cccc(Cc2nc3ccccc3nc2SCC(=O)Nc2cccc(OC)c2)c1,inactive: -10.3%,–
CC1(CNc2ccccc2)COc2ccc(C(=O)Nc3ccc4[nH]ccc4c3)cc2N1 (stereo not given),–,"inconclusive: 28.2 µM [inhibitor, single point]"
c1ccc(-c2ccnc3nc(C4CC4)nn23)cc1,–,active: 28.2 µM
Cc1ccccc1-c1[nH]nc2ncc(-c3cccc(F)c3)nc12,–,"inconclusive: 31.6 µM [inhibitor, single point]"
Cc1ccccc1NC(=O)CSc1ccc(-c2cccs2)nn1,–,"inconclusive: 39.8 µM [inhibitor, single point]"
Cc1ccc2[nH]c(=O)c(CCC(=O)O)cc2c1,–,"inconclusive: 10 µM [inhibitor, partial curve, poor fit]"
Cc1nn2c(c1-c1ccccc1C(N)=O)N(CCCc1ccccc1)CCC2,–,active: 31.6 µM
CC1CC1C(=O)NC1CCC(c2ccccc2)CC1 (stereo not given),inactive: 3.47%,–
CC1=C(C(=O)Nc2ccccc2)C(c2ccc(O)cc2)n2nc(SCc3ccccc3)nc2N1 (stereo not given),–,"inconclusive: 28.2 µM [inhibitor, partial curve, poor fit]"
CN(C(=O)CC1C(=O)NCCN1Cc1ccc(F)c(F)c1)C1CCCCC1 (stereo not given),–,"inconclusive: 39.8 µM [inhibitor, single point]"
Cc1noc(C)c1CN1CCN(C(=O)c2cc(C3CC3)nn2-c2ccccc2)CC1,inactive: 13.7%,–
COc1cc(C(=O)Nc2cccc(-c3nc4ccc(C)cc4o3)c2)cc(OC)c1OC,inactive: 1.64%,–
CN1C(=O)C(CC(=O)O)S/C1=N\N=C\c1ccc(O)cc1O (stereo not given),–,"inconclusive: 39.8 µM [inhibitor, single point]"
N#Cc1c[nH]n2c(NC3CCCC3)c(-c3ccc(Cl)cc3)nc12,–,"inconclusive: 35.5 µM [inhibitor, single point]"
COc1cccc(C(=O)/C(C#N)=C\c2ccccc2OC(F)F)c1,–,"inconclusive: 39.8 µM [inhibitor, single point]"
O=C(Cn1ncc2c3ccccc3n(Cc3ccc(F)cc3)c2c1=O)NCCCN1CCCCC1,–,"inconclusive: 31.6 µM [inhibitor, partial curve, poor fit]"
Nc1ccc(Oc2ccc(F)cc2)nc1,–,"inconclusive: 39.8 µM [inhibitor, single point]"

# Reference: PubChem BioAssay AID1347165 (National Center for Advancing Translational Sciences (NCATS), 2019)
